The values that follow come from the RNAGym collection of RNA variant scans (doi:10.7554/elife.90254).

The source gives no read counts; variants with many changes may rest on few reads.

Sequences and labels used below:
B1: LINE1-mini (parent)
chain: GGCAGAGCUCAACACAGCGUGGCAAAGUGGCUGUGGCUAGACUGCC

Variants of B1 are the subject of the data set. Nature of the data set: self-cleavage, relative activity (ratio to wild type); higher = more cleavage; in vitro, sequencing; the parent is a self-cleaving ribozyme.
With C23U A25U C37G C46U, the self-cleavage stood at 0.01. Then A26U C42U C46A, with 0.09; and A4U A12C G30U, with 0.02; and C18U C45G C46U, with 0.13.

For the variant C10A G30A A41C U43G, the self-cleavage is 0.33. In the case of A11C U32C A39G it was 0.04; in that of C13G A26U G30U, 0.06; in that of C10A G17A U28G, 0.04. As for G2U G19U U38G G40U, the self-cleavage amounted to 0. In the case of G5C G17A C18A C45A it was 0.01. Turning to G22C C23U U43A, the self-cleavage was determined as 0.01.

G5U C8A G36U: the self-cleavage came to 0.17. Then G1U G17U A26U G29C G33A U38A A41G C42U, with 0.02. Then C10G A26C C45G, with 0.01; and C13G G19A G22U G44C, with 0.06.

For the variant G1A C3G G5U A6U C15G, the self-cleavage was found to be 0.09.

For the variant G7U C18G A25G, the self-cleavage was found to be 0.21. In the case of A4G C10A A39C, the self-cleavage worked out at 0.01. In the case of C31U G35A G36C C37U it was 0.11; in that of A14U A24G C45A, 0.06; in that of G1C A16U U28A, 0.04. In the case of A6U G21A G29A C42A it was 0.17; in that of G2U U9G G22U, 0; in that of C13G A14U G19U, 0.06. Then A6C C18U G27A G30U G44C, with 0.18; and A16G C18U G21U C23U, with 0.07; and C18U G29A G33C, with 0.01. As to G1A A26U C31U G35A G40C, the self-cleavage was found to be 0.08. Regarding G1U A12C G29C G33A G44U, the self-cleavage stood at 0. Then C3U U9C A11G A16C U20A G30C C45U, with 0.01; and G2U C8G U34G G36A, with 0.04. Then C10A C15G A24U, with 0.01. For the variant C8U G22U C37U, the self-cleavage stood at 0.09.

Consider C8A A12C C23U U43A, for which the self-cleavage amounted to 0.02.

Take G30A C31G U34C G35C: the self-cleavage worked out at 0.03. In the case of G5U G21U A25G G30U it was 0.02.

Regarding C15U U20G C23G A26U, the self-cleavage was determined as 0.15.

G5U C15G A24G: the self-cleavage is 0.03. In the case of G5A C8U G44C it was 0.28; in that of C3U A16U U20G A26C G35U, 0.06. Then U9A G21C C46A, with 0.14. Then C3U A16C G17A C18A, with 0. On to C10G A12G C18G C23U G30C C31U A39U, for which the self-cleavage was 0.01. Take G7C G33A A39C C42A: the self-cleavage is 0.07. Then G1U G2U C37U, with 0.03; and A12G G33A U38C, with 0.49; and C10G U20A U28A G44A, with 0.02. In the case of G17A C18U G40C it was 0.01. Then C18U A24U C46U, with 0.05; and A6G G7U G35A U38C A41C G44U, with 0.

As to A12G G17C A26U U32A C45U, the self-cleavage was 0.05.

In the case of C10U G17A C31U U34G, the self-cleavage is 0.01. Then U9C U34C C37G, with 0.01. With G7C A12U G30C, the self-cleavage was 0.18. Then C10G G27C G33C U43A, with 0; and G2C A4G U28G G30C C45G, with 0.04. Then A16G G17C A26G, with 0.11; and C10A C23A G29U, with 0.02. Then A11U G21C G29C G36A G44C, with 0.03; and A16C A26U U28A A41U, with 0.14; and U9A C10U U32G, with 0.02.

As to A14C A16C G29C G30U G35U C45G, the self-cleavage came to 0.08.

As for C3G C8A C13A C37A U43C, the self-cleavage amounted to 0.07. In the case of A6G G7C G29A it was 0.02; in that of G7A G33C U43A, 0.29.

Regarding C10U G17U A24C G40U, the self-cleavage came out at 0.02. With G27U U38C C42U C46G, the self-cleavage turned out to be 0.02.

On to A6G U9A G29U U32G, for which the self-cleavage was 0.24. In the case of G1U U9G C31G U32A, the self-cleavage worked out at 0.02.

Consider C13U G22A G27C C37A, for which the self-cleavage amounted to 0.08.

G19C A25C G30U G40U: the self-cleavage worked out at 0.17. In the case of U9A C18A A39U it was 0.02; in that of C15U C31U C46A, 0.02; in that of U9G C23U A25C, 0.11. Then C8A C15A U32C G35A, with 0.05; and G5U A12U A25U G36A C45A, with 0.03. Turning to C3U G7U U20G A26C, the self-cleavage was 0.05.

Consider A6G C13U A14G G19A G21C A25U A26C G33A, for which the self-cleavage was 0.03.

For the variant U9C A16U G29A G30C, the self-cleavage was determined as 0.01. In the case of G30C U34C C37G it was 0.04. In the case of U9A C18U G33A it was 0.02; in that of G5U A6C A26U U43C, 0.06; in that of A11G G35U C42U, 0.06. Regarding C15A G30A C37U, the self-cleavage is 0.05.

For C10U U20A U28C U32G, the self-cleavage was 0.02.

Regarding G17U U38G G44U, the self-cleavage came to 0.02.

A6C A11G G17U G19C G44U C45U: the self-cleavage stood at 0. G2U C45G C46G: the self-cleavage came out at 0.47. In the case of C8A C18A G22U A26G G29C it was 0.09; in that of G5A G7U A11G, 0.03; in that of C8U A14U G27U C31A, 0.06. As to C3U C13U G17A, the self-cleavage turned out to be 0.08.

Regarding C3U G5A A24G, the self-cleavage is 0.31. Then C10A G29C U32G G44U, with 0.02; and C10A G33A G35U, with 0; and G2A C10G G36U, with 0.02. For G7C G19C C23G A26C G30U, the self-cleavage was determined as 0.02. Then A14C G22A G27U U34G G36A A39C, with 0; and G7U A12C C23A G33U C46U, with 0. In the case of C31U U32G G40A it was 0.02; in that of G7A A16C G29C G30U, 0.05.

Regarding G7A G17U C23G G33C C37A, the self-cleavage was 0.03. As to G1U A26G G40U, the self-cleavage turned out to be 0.05.

On to G1U C3U A14C A25G G27U, for which the self-cleavage was found to be 0.2. Then C8A G17U G21A G40A, with 0.3; and U20C G30U U32G, with 0.54; and C10G C15U U20A A25C, with 0.06. Then A16G G33A G44U, with 0.03; and G5A U9A G22A G27C, with 0.11; and C10A U20C A39C C42G, with 0.02. In the case of C15G G30A U32A it was 0.02.

On to A14C A16C G22C A24G A26C G29A, for which the self-cleavage came to 0.19.

For the variant G1A G7U A25U G27A, the self-cleavage was 0.07.

In the case of C13G C23U G36U, the self-cleavage is 0.09.

Regarding C8A A16C C31G U34C C45U, the self-cleavage came out at 0.02. Then G5U C10G C13A, with 0.04; and U9A C37A A41C, with 0.04. In the case of C18U U20G G21U it was 1.46; in that of C15U U20A C42G, 0.03; in that of A6G G19U A41U, 0.05. Then G5C C8U C18A G29U G35U, with 0.04; and A16G G29U G40C, with 0.07. Consider G27U C37U C42U, for which the self-cleavage was found to be 0.07.

For the variant A4C C10A G17U A41C C42U C46U, the self-cleavage was found to be 0.01. Then A4U C8A C46U, with 0.18; and G17A U20G A41C G44A, with 0.03; and C15A C18U G21C G40U, with 0.03.

Regarding G7C A11U G21U G27A, the self-cleavage came to 0.01. C3U G36A A39U: the self-cleavage is 0.62. In the case of G5A C15A U28G it was 0.03. Turning to A4U A12U C15U G30C G40U C46G, the self-cleavage stood at 0.04. In the case of A4C G22C C46G it was 0.03; in that of G1U C3U G22A G27A G36U, 0.33.

On to A11U U20G G29U C31G, for which the self-cleavage was 0.01. In the case of G2A G19A G21U G27C C42U it was 0.05; in that of G5C C31A C37U, 0.03. In the case of G7A G17A A24G C31A it was 0.02; in that of C8A U9C G27U, 0.07.

Regarding G5C U20C G21U A25G U32A G33C C37G, the self-cleavage is 0. In the case of A14U G17A U32G C45A it was 0.05; in that of G5A U20G A39G, 0.14. In the case of A12C A16U U32C G35U it was 0.02; in that of A14U G19C G35U, 0.92. In the case of G1U C3G C18G C31A it was 0.06; in that of G2C C3U G30U, 0.22. As for G17U G22C G40U C42A, the self-cleavage was 0.04.

On to G17C G30U U38A, for which the self-cleavage came out at 0.07. In the case of C8A G22U A39G it was 0.04; in that of C13A G22U A26U, 0.06. Then G5A C10A G19C A24U G27C U28C C46U, with 0; and G7U A16C C45A, with 0.1; and U9G G30A G36A, with 0.23. In the case of A6U C10U U32G it was 0.12; in that of A11C A14C A24G, 0.05; in that of C3A C15G C18U C31A, 0.1. For the variant A4G A11U C18A, the self-cleavage amounted to 0. In the case of G19C U34A C45A it was 0.03; in that of G7C C10U C13A C18U U32C C46G, 0.02; in that of G5A G19C A25G U38C, 0.02. In the case of A4G A14C C23G G40A it was 0.14.

For G2U G19U C31A G35C, the self-cleavage is 0.04. In the case of G5C G19U G21C C31G it was 0.07; in that of G5C A12G G22A G30U C46A, 0.01; in that of A4C C13A G29C C46A, 0.04. Then C8A U20G A26U C42G, with 0.15; and A11G U28C C37G, with 0; and A16C G22U G27U, with 0.44.
